# Source: the supplement of paper PMC8728848
# The list shows a part of the results.
# B1: CC1G-10077 (Coprinopsis cinerea), A8NDT7 (protein)
# chain: MALNEGVYWIRNSRFTNKVLDLDAANVAKGTSILDFNEHGTFNENHNQLWIVERFQSRDTYLIRSVHSNLVLDLSQGLSANGTPILCWTQHGGTNQQWRIEWVKDDNKTPLYRIVSVATGTAISHNEDDSSAYTVAWSVDDGPKQLWSFDPFVTPLLYRLRVKSTSRVLDLAAASADNGTLALAWEQHTAITKRNQLWWLPYRSGAEEYTIQCLETSTVADLSGGNSGNGTPIYGWQSHGGRNQQWKFEPTSDSGDYYHIKNVEGGSVMDAYMNDSQKRVGGWSNNGGDNQKWLLDPLPSPGPGWVLIQNGGTGKFLCSTPSGDIGTADGPETVYDYSVQWRFIQREYTGVYHVVNRATGAYLRQIGTSMPSIGLAEENDDELKDWWMLETYDNSEIGLASIISRWTGNVLDHYGGVSVQALDNNTENSYRSWAIIPARDWLTSFSLVNGQGGLCLAAQYAREETRLSTTANVNDFHAQWVFRKPSGSSGYTIQNKYNNHYVGGTSARWELVVCCNKYFGIRNTSTQKYLAIEDGQVTFQDQDMTDRKQCWELCSGRATDTSGNDYDLIYMDDDLLEVMIPWVGDKQGDLKHYIEKRATKKPPKDKGGWQLPAAGLIKKPKFNDIRQLLQELIEQWEWDVVNEEREQIQTLVSIDEAEARRLLGRRPHPDIVAAYQRSRSSTLFRIDRQGYFNIAGDRYVNIQGQYGDDSYFHIALPVGVRFGREQIRRFLRDSLDRSTSVTITPTTCKPPSGGPDYNRDPDSDGDNSWIKWTIAVVGTSAIKHSEL
# Legend:
# Assay in all cases: glycan array binding signal (z-score within array); higher = stronger binding
# Conditions in all cases: glycan notation: IUPAC condensed, linker removed
# [1] = molecular target: Fuc(a1-2)Gal
# Outline: (§1)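 The Consortium for Functional Glycomics database supplied 3228 glycan arrays, of which those lacking an available protein sequence were dropped. The binding signal, a within-array Z-score, was averaged across arrays of the same protein sequence and across linkers. Negative scores can be read as non-binding.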
# [2] = molecular target: Fuc(a1-2)Gal(b1-3)GalNAc
# Outline: as §1
# [3] = molecular target: Fuc(a1-2)Gal(b1-3)GalNAc(a1-3)[Fuc(a1-2)]Gal(b1-4)Glc
# Outline: as §1
# [4] = molecular target: Fuc(a1-2)Gal(b1-3)GalNAc(a1-3)[Fuc(a1-2)]Gal(b1-4)GlcNAc
# Outline: as §1
# [5] = molecular target: Fuc(a1-2)Gal(b1-3)GalNAc(b1-3)Gal
# Outline: as §1
# [6] = molecular target: Fuc(a1-2)Gal(b1-3)GalNAc(b1-3)Gal(a1-4)Gal(b1-4)Glc
# Outline: as §1
# [7] = molecular target: Fuc(a1-2)Gal(b1-3)GalNAc(b1-4)[Neu5Ac(a2-3)]Gal(b1-4)Glc
# Outline: as §1
# [8] = molecular target: Fuc(a1-2)Gal(b1-3)GlcNAc
# Outline: as §1
# [9] = molecular target: Fuc(a1-2)Gal(b1-3)GlcNAc(b1-2)Man(a1-3)[Fuc(a1-2)Gal(b1-3)GlcNAc(b1-2)Man(a1-6)]Man(b1-4)GlcNAc(b1-4)GlcNAc
# Outline: as §1
# [10] = molecular target: Fuc(a1-2)Gal(b1-3)GlcNAc(b1-2)Man(a1-3)[Fuc(a1-2)Gal(b1-3)GlcNAc(b1-2)Man(a1-6)]Man(b1-4)GlcNAc(b1-4)[Fuc(a1-6)]GlcNAc
# Outline: as §1
# [11] = molecular target: Fuc(a1-2)Gal(b1-3)GlcNAc(b1-3)Gal(b1-4)Glc
# Outline: as §1
# [12] = molecular target: Fuc(a1-2)Gal(b1-3)GlcNAc(b1-3)GalNAc
# Outline: as §1
# [13] = molecular target: Fuc(a1-2)Gal(b1-3)GlcNAc(b1-3)[Fuc(a1-2)Gal(b1-3)GlcNAc(b1-6)]GalNAc
# Outline: as §1
# [14] = molecular target: Fuc(a1-2)Gal(b1-3)GlcNAc(b1-3)[Gal(b1-4)GlcNAc(b1-6)]Gal(b1-4)Glc
# Outline: as §1
# [15] = molecular target: Fuc(a1-2)Gal(b1-3)GlcNAc(b1-3)[Neu5Ac(a2-6)Gal(b1-4)GlcNAc(b1-6)]Gal(b1-4)Glc
# Outline: as §1
# [16] = molecular target: Fuc(a1-2)Gal(b1-3)GlcNAc6S
# Outline: as §1
# [17] = molecular target: Fuc(a1-2)Gal(b1-3)[Fuc(a1-4)]GlcNAc
# Outline: as §1
# [18] = molecular target: Fuc(a1-2)Gal(b1-3)[Fuc(a1-4)]GlcNAc(b1-2)Man(a1-3)[Fuc(a1-2)Gal(b1-3)[Fuc(a1-4)]GlcNAc(b1-2)Man(a1-3)]Man(b1-4)GlcNAc(b1-4)GlcNAc
# Outline: as §1
# [19] = molecular target: Fuc(a1-2)Gal(b1-3)[Fuc(a1-4)]GlcNAc(b1-2)Man(a1-3)[Fuc(a1-2)Gal(b1-3)[Fuc(a1-4)]GlcNAc(b1-2)Man(a1-6)]Man(b1-4)GlcNAc(b1-4)[Fuc(a1-6)]GlcNAc(b1-4)[Fuc(a1-6)]GlcNAc
# Outline: as §1
# [20] = molecular target: Fuc(a1-2)Gal(b1-3)[Fuc(a1-4)]GlcNAc(b1-3)[Fuc(a1-3)[Gal(b1-4)]GlcNAc(b1-6)]Gal(b1-4)Glc
# Outline: as §1
# [21] = molecular target: Fuc(a1-2)Gal(b1-3)[Fuc(a1-4)]GlcNAc(b1-3)[Gal(b1-4)GlcNAc(b1-6)]Gal(b1-4)Glc
# Outline: as §1
# [22] = molecular target: Fuc(a1-2)Gal(b1-4)Fuc(a1-3)]GlcNAc(b1-2)Man(a1-3)[Fuc(a1-2)Gal(b1-4)[Fuc(a1-3)]GlcNAc(b1-2)Man(a1-6)]Man(b1-4)GlcNAc(b1-4)GlcNAc
# Outline: as §1
# [23] = molecular target: Fuc(a1-2)Gal(b1-4)Glc
# Outline: as §1
# [24] = molecular target: Fuc(a1-2)Gal(b1-4)Glc6S
# Outline: as §1
# [25] = molecular target: Fuc(a1-2)Gal(b1-4)GlcNAc
# Outline: as §1
# [26] = molecular target: Fuc(a1-2)Gal(b1-4)GlcNAc(b1-2)Man
# Outline: as §1
# [27] = molecular target: Fuc(a1-2)Gal(b1-4)GlcNAc(b1-2)Man(a1-3)[Fuc(a1-2)Gal(b1-4)GlcNAc(b1-2)Man(a1-6)]Man(b1-4)GlcNAc(b1-4)GlcNAc
# Outline: as §1
# [28] = molecular target: Fuc(a1-2)Gal(b1-4)GlcNAc(b1-2)Man(a1-3)[Fuc(a1-2)Gal(b1-4)GlcNAc(b1-2)Man(a1-6)]Man(b1-4)GlcNAc(b1-4)[Fuc(a1-6)]GlcNAc
# Outline: as §1
# [29] = molecular target: Fuc(a1-2)Gal(b1-4)GlcNAc(b1-2)[Fuc(a1-2)Gal(b1-4)GlcNAc(b1-4)]Man(a1-3)[Fuc(a1-2)Gal(b1-4)GlcNAc(b1-2)Man(a1-6)]Man(b1-4)GlcNAc(b1-4)GlcNAc
# Outline: as §1
# [30] = molecular target: Fuc(a1-2)Gal(b1-4)GlcNAc(b1-3)Gal(b1-4)GlcNAc
# Outline: as §1
# [31] = molecular target: Fuc(a1-2)Gal(b1-4)GlcNAc(b1-3)Gal(b1-4)GlcNAc(b1-2)Man(a1-3)[Fuc(a1-2)Gal(b1-4)GlcNAc(b1-3)Gal(b1-4)GlcNAc(b1-2)Man(a1-6)]Man(b1-4)GlcNAc(b1-4)GlcNAc
# Outline: as §1
# [32] = molecular target: Fuc(a1-2)Gal(b1-4)GlcNAc(b1-3)Gal(b1-4)GlcNAc(b1-3)Gal(b1-4)GlcNAc
# Outline: as §1
# [33] = molecular target: Fuc(a1-2)Gal(b1-4)GlcNAc(b1-3)GalNAc
# Outline: as §1
# [34] = molecular target: Fuc(a1-2)Gal(b1-4)GlcNAc(b1-3)[Fuc(a1-2)Gal(b1-4)GlcNAc(b1-6)]GalNAc
# Outline: as §1
# [35] = molecular target: Fuc(a1-2)Gal(b1-4)GlcNAc(b1-3)[Fuc(a1-3)[Gal(b1-4)]GlcNAc(b1-6)]Gal(b1-4)Glc
# Outline: as §1
# [36] = molecular target: Fuc(a1-2)Gal(b1-4)GlcNAc(b1-6)GalNAc
# Outline: as §1
# [37] = molecular target: Fuc(a1-2)Gal(b1-4)GlcNAc6S
# Outline: as §1
# [38] = molecular target: Fuc(a1-2)Gal(b1-4)[Fuc(a1-3)]GlcNAc
# Outline: as §1
# [39] = molecular target: Fuc(a1-2)Gal(b1-4)[Fuc(a1-3)]GlcNAc(b1-2)Man(a1-3)[Fuc(a1-2)Gal(b1-4)[Fuc(a1-3)]GlcNAc(b1-2)Man(a1-6)]Man(b1-4)GlcNAc(b1-4)[Fuc(a1-6)]GlcNAc
# Outline: as §1
# [40] = molecular target: Fuc(a1-2)Gal(b1-4)[Fuc(a1-3)]GlcNAc(b1-2)[Fuc(a1-2)Gal(b1-4)[Fuc(a1-3)]GlcNAc(b1-4)]Man(a1-3)[Fuc(a1-2)Gal(b1-4)[Fuc(a1-3)]GlcNAc(b1-2)Man(a1-6)]Man(b1-4)GlcNAc(b1-4)GlcNAc
# Outline: as §1
# [41] = molecular target: Fuc(a1-2)Gal(b1-4)[Fuc(a1-3)]GlcNAc(b1-3)Gal(b1-4)[Fuc(a1-3)]GlcNAc
# Outline: as §1
# [42] = molecular target: Fuc(a1-2)Gal(b1-4)[Fuc(a1-3)]GlcNAc(b1-3)Gal(b1-4)[Fuc(a1-3)]GlcNAc(b1-3)Gal(b1-4)[Fuc(a1-3)]GlcNAc
# Outline: as §1
# [43] = molecular target: Fuc(a1-2)Gal(b1-4)[Fuc(a1-3)]GlcNAc(b1-3)GalNAc
# Outline: as §1
# [44] = molecular target: Fuc(a1-2)Gal(b1-4)[Fuc(a1-3)]GlcNAc(b1-3)[Neu5Ac(a2-6)Gal(b1-4)GlcNAc(b1-6)]Gal(b1-4)Glc
# Outline: as §1
# [45] = molecular target: Fuc(a1-2)Gal3S(b1-4)GlcNAc
# Outline: as §1
binder,measurement,setting,value
B1,glycan array binding signal (z-score),[1],-0.388
same,glycan array binding signal (z-score),[2],-0.484
same,glycan array binding signal (z-score),[3],-0.462
same,glycan array binding signal (z-score),[4],-0.497
same,glycan array binding signal (z-score),[5],-0.456
same,glycan array binding signal (z-score),[6],-0.416
same,glycan array binding signal (z-score),[7],-0.453
same,glycan array binding signal (z-score),[8],-0.495
same,glycan array binding signal (z-score),[9],-0.383
same,glycan array binding signal (z-score),[10],-0.437
same,glycan array binding signal (z-score),[11],-0.448
same,glycan array binding signal (z-score),[12],-0.394
same,glycan array binding signal (z-score),[13],-0.264
same,glycan array binding signal (z-score),[14],0.69
same,glycan array binding signal (z-score),[15],-0.23
same,glycan array binding signal (z-score),[16],-0.482
same,glycan array binding signal (z-score),[17],-0.493
same,glycan array binding signal (z-score),[18],-0.472
same,glycan array binding signal (z-score),[19],-0.384
same,glycan array binding signal (z-score),[20],-0.303
same,glycan array binding signal (z-score),[21],0.268
same,glycan array binding signal (z-score),[22],-0.343
same,glycan array binding signal (z-score),[23],-0.353
same,glycan array binding signal (z-score),[24],-0.453
same,glycan array binding signal (z-score),[25],-0.192
same,glycan array binding signal (z-score),[26],-0.429
same,glycan array binding signal (z-score),[27],0.081
same,glycan array binding signal (z-score),[28],-0.348
same,glycan array binding signal (z-score),[29],-0.227
same,glycan array binding signal (z-score),[30],0.084
same,glycan array binding signal (z-score),[31],1.54
same,glycan array binding signal (z-score),[32],-0.092
same,glycan array binding signal (z-score),[33],-0.496
same,glycan array binding signal (z-score),[34],0.295
same,glycan array binding signal (z-score),[35],-0.235
same,glycan array binding signal (z-score),[36],0.6
same,glycan array binding signal (z-score),[37],-0.133
same,glycan array binding signal (z-score),[38],-0.471
same,glycan array binding signal (z-score),[39],-0.404
same,glycan array binding signal (z-score),[40],-0.388
same,glycan array binding signal (z-score),[41],-0.414
same,glycan array binding signal (z-score),[42],-0.47
same,glycan array binding signal (z-score),[43],-0.438
same,glycan array binding signal (z-score),[44],-0.332
same,glycan array binding signal (z-score),[45],-0.36
